Experimental findings from paper PMC11335210 are described below.

Chains of the proteins cited; added tags and fusions are not shown.
UniProt Q6DFV3: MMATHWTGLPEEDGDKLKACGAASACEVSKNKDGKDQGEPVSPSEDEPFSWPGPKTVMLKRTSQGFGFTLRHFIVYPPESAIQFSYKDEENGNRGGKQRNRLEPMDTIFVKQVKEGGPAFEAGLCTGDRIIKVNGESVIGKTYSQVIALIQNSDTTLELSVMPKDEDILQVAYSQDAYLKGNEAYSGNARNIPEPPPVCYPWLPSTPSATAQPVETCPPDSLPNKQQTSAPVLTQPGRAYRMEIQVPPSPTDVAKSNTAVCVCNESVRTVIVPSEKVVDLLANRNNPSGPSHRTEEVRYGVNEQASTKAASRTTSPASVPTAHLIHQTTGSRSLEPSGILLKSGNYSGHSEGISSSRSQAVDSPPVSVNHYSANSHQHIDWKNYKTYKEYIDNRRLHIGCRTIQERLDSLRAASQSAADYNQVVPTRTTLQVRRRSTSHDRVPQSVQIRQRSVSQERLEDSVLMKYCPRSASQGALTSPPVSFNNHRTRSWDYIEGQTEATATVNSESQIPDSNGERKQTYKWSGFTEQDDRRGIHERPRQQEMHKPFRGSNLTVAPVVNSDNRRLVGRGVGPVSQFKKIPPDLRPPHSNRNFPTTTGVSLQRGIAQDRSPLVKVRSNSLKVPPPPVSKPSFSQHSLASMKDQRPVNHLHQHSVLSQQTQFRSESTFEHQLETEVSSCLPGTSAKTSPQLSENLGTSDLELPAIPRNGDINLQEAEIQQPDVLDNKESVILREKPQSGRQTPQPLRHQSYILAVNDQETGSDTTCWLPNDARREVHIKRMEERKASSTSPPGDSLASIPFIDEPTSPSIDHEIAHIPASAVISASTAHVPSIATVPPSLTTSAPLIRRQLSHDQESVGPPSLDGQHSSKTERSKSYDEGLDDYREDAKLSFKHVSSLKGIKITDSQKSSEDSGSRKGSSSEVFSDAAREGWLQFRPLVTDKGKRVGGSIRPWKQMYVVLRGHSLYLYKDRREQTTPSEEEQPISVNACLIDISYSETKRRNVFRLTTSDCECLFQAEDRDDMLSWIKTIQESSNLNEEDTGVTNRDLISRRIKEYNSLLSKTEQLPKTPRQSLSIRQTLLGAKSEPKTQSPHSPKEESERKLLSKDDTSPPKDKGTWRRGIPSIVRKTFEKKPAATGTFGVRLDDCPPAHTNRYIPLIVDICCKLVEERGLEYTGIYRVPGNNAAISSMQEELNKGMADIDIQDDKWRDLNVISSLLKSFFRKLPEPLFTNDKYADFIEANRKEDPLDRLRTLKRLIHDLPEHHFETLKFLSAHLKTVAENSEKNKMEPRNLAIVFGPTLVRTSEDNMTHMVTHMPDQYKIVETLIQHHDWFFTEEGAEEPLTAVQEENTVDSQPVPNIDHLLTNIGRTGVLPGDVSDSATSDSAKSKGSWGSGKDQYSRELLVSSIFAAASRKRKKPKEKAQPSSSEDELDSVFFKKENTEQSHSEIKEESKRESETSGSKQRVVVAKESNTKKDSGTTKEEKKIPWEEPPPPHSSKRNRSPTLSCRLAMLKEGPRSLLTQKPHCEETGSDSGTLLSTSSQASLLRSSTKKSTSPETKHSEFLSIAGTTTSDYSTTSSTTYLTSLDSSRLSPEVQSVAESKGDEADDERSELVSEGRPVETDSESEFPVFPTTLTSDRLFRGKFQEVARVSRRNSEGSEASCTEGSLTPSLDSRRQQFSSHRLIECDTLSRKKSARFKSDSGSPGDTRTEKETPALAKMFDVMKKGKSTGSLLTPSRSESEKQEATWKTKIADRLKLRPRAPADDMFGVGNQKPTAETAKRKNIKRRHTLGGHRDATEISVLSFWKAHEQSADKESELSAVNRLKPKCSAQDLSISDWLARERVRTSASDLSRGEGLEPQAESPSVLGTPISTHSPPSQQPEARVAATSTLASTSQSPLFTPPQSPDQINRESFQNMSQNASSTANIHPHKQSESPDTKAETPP

Read-outs that look alike come from different tables or passages of the source. No constants are given. Whether binding was seen depends on the method and setting. In cells and extracts the contact can be indirect. Some results given as binding are weak or reduced against the parent protein; the word gives no strength. For some assays here: Where a sequence is shown, tags or fusion partners need not be part of it.

Experiment [1] has as its target T1, human PKP4 N-terminally tagged with EGFP (EGFP-PKP4-WT) (human) (UniProt Q99569).
T1 sequence: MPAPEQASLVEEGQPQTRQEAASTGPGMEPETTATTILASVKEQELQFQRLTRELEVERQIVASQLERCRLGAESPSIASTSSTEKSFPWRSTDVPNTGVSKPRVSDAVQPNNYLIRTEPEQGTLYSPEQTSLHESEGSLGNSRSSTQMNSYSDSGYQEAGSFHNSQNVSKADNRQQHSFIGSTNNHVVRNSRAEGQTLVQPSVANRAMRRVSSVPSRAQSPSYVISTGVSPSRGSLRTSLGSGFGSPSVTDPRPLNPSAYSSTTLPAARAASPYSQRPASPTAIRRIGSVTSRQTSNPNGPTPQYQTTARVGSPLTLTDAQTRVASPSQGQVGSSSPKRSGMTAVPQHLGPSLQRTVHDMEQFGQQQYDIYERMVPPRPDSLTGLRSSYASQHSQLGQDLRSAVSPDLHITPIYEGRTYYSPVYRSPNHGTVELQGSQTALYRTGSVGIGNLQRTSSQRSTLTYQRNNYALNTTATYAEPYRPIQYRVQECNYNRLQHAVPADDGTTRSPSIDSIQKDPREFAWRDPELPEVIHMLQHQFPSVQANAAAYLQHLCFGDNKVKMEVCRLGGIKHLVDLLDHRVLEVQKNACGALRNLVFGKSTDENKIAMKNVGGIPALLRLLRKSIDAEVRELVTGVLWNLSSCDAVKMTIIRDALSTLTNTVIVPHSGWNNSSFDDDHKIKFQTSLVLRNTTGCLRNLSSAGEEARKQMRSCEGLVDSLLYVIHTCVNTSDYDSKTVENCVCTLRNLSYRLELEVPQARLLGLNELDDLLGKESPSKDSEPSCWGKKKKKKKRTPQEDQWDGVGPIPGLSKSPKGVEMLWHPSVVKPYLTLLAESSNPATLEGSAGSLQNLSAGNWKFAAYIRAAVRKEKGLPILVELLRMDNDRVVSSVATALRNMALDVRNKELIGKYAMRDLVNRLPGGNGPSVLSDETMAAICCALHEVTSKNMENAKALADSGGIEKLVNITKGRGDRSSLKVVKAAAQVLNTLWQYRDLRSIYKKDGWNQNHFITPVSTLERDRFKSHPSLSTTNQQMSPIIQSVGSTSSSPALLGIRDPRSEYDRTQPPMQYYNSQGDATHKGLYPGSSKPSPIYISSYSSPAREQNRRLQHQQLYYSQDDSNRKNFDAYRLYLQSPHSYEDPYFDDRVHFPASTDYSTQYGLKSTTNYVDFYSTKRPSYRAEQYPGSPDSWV
Put plainly: co-IP; GFP-Trap Agarose on lysates of PKP4-KO + GFP-PKP4 (Rescue) keratinocytes, WT + GFP cells as control; IP buffer 20 mM Tris-HCl pH 7.5, 137 mM NaCl, 2 mM EDTA, 10% glycerol, 1% NP-40; 1 h at 4 °C; western blot. On the technique in general: Immunoblotting shows a protein as a band on a membrane.

In experiment [2] the target is T2, Plakophilin 4 (PKP4), endogenous in mouse keratinocytes (mouse (endogenous in mouse keratinocytes)) (UniProt Q68FH0).
T2 sequence: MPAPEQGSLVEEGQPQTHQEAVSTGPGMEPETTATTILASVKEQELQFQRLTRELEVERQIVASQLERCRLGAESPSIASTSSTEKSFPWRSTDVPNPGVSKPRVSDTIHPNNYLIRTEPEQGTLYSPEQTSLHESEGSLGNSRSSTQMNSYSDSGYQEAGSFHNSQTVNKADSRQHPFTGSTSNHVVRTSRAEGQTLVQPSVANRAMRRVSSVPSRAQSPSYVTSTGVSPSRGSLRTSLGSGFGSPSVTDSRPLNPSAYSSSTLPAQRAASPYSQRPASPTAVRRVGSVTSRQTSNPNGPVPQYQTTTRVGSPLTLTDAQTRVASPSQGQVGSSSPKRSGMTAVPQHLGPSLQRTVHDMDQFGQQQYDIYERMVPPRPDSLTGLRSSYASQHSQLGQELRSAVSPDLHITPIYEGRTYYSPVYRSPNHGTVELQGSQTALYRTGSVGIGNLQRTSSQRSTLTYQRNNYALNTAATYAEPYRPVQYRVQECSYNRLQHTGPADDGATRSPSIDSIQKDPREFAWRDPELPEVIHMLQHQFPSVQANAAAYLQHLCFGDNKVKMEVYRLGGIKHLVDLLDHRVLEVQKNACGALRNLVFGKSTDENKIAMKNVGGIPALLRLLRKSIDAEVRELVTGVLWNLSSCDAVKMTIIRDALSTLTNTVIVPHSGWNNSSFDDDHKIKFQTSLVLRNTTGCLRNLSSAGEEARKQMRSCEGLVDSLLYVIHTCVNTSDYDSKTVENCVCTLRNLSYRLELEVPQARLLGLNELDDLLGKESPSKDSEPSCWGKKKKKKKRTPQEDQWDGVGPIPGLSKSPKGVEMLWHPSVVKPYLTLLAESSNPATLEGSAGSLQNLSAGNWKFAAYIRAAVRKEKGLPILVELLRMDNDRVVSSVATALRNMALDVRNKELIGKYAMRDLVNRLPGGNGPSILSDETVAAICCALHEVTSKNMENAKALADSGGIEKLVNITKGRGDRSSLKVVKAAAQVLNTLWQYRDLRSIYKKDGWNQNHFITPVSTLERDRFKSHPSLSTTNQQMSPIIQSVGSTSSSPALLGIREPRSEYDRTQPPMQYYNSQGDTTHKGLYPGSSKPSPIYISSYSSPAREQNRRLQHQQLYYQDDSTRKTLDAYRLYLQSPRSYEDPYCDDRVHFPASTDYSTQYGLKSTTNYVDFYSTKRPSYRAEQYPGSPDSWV
Briefly: co-IP; anti-PKP4 antibody and Protein A agarose on lysates of WT keratinocytes, PKP4-KO cells in parallel as control; IP buffer 20 mM Tris-HCl pH 7.5, 137 mM NaCl, 2 mM EDTA, 10% glycerol, 1% NP-40; overnight at 4 °C; western blot.

The target in experiment [3] is T1, human PKP4 N-terminally tagged with EGFP (EGFP-PKP4-WT) (human). Put plainly: co-IP; GFP-Trap Agarose on lysates of PKP4-KO + GFP-PKP4 (Rescue) keratinocytes, WT + GFP cells as control; IP buffer 20 mM Tris-HCl pH 7.5, 137 mM NaCl, 2 mM EDTA, 10% glycerol, 1% NP-40; 1 h at 4 °C; western blot. The source holds these as a separate data set.

For ARHGAP21 (from UniProt Q6DFV3 1-1945), the binding entry in experiment [1] is listed as “no binding”.

B1: PKP1 (protein, UniProt P97350 1-728)
chain: MNHSPLKTALAYECFQDQDNSTLALPSDQKMKTGTSGRQRVQEQVMMTVKRQKSKSSQSSTLSHSNRGSMYDGLADNYNNYGTTSRSSYFSKFQAGNGSWGYPIYNGTLKREPDNRRFSSYSQMENWSRHYPRGSCATPGAGSDICFMQKIKASRSEPDLYCDPRGTLRKGTLGSKGHKTTQNRCSFYSTCSGQKAVKKCPVRPPSCTSKQDPVYVPPISCNKDLSFGHSRASSKICSEDIECSGLTIPKAVQYLCSQDEKYQAIGAYYIQHTCFQDESAKQQVYQLGGICKLVDLLRSPNQNVQQAAAGALRNLVFRSTPNKLETRRQNGIREAVSLLRRSGSTEIQKQLTGLLWNLSSTDELKEELVADALPVLTDRVIIPFSGWCDGNSNMSREVVDPEVFFNATGCLRNLSSADAGRQTMRNYSGLIDSLMAYVQNCVAASRCDDKSVENCMCILHNLSYRLDAEVPTRYRQLEYNTRNAYTEKSSTGCFSNRGDKMMNNNYDCPLPEEETNPKGSSWLYHSDAIRTYLNLMGKSKKDATLEACAGALQNLTASKGLMSNGMSQLIGIKEKGLPQIARLLQSGNSDVVRSGASLLSNMSRHPVLHRVMGNQVFPEVTRLLTSHTGNTSNSEDILSSACYTVRNLMTSQPQMAKQYFSNSMLNNVFNLCRNTASSPKAAEAARLLLSDMWASKELQSVLRQQGFDRNMMGNIAGANNLRNFTSRF
B1: in experiment [2], the binding entry is “binds”.

B2: PKP3 (protein, UniProt Q9QY23 1-797)
chain: MQEGNFLLSALQPETGVCSLALPSDLQLDRRGAEGPEADRLRAARVQEQVRARLLQLGQQSRHNGSAELDGSAESARGMPRGQYHTMQTGFSSRSQGMSGDKTSTFRPIAKPAYSPASWSSRSAVDLTCSRRLSSAHNGGSAFGAVGYGGTQPTPPMPTRPVSFHERGGAASRADYDTLSLRSLRLGPGGLDDRYSVVSEQLEPAAASTYRAYAYERQASSGSSRAGGLDWPEATEGPPSRTIRAPAMRTLQRFQSSHRSRGGTGSVSGAGLEPVARAPSVRSLSLSLADSGHLPDVRGLDSYTGHRTLQRLSSGFDDIDLPSAVKYLMASDPNLQVLGAAYIQHRCYSDAAAKKQARSLQAVPRLVKLFNHANQEVQRHATGAMRNLIYDNVDNKLALVEENGIFELLRTLREQDDELRKNVTGILWNLSSSDHLKDRLARDTLEQLTDLVLSPLSGAGGPPLIQQNASEAEIFYNATGFLRNLSSASQATRQKMRECHGLVDALVTYINHALDVGKCEDKSVENAVCVLRNLSYRLYDEMPPSALQRLEGRGRRDMAGAPPGEMVGCFTPQSRRLRELPLTADALTFAEVSKDPKGLEWLWSPQIVGLYNRLLQRCELNRHTTEAAAGALQNITAGDRRWAGVLSRLALEQERILNPLLDRVRTADHNQLRSLTGLIRNLSRNARNKDEMSTKVVSHLIEKLPGSVGEKCPPAEVLVNIIAVLNNLVVASPIAARDLLYFDGLRKLVFIKKKRDSPDSEKSSRAASSLLANLWQYSKLHRDFRAKGYRKEDFLGP
In the case of B2, in experiment [2], the binding result is reported as “binds”.

B3: MLC phosphatase (MYPT1) (protein, UniProt Q9DBR7 1-1029)
chain: MKMADAKQKRNEQLKRWIGSETDLEPPVVKRQKTKVKFDDGAVFLAACSSGDTDEVLKLLHRGADINYANVDGLTALHQACIDDNVDMVKFLVENGANINQPDNEGWIPLHAAASCGYLDIAEFLIGQGAHVGAVNSEGDTPLDIAEEEAMEELLQNEVNRQGVDIEAARKEEERVMLRDARQWLNSGHISDVRHAKSGGTALHVAAAKGYTEVLKLLIQAGYDVNIKDYDGWTPLHAAAHWGKEEACRILVDNLCDMETVNKVGQTAFDVADEDILGYLEELQKKQTLLHSEKRDKKSPLIESTANMENNQPQKAFKNKETLIIEPEKNASRIESLEHEKADEEEEGKKDESSCSSEEDEEDDSESEAETDKTKPMASVSNAHTSSTQAAPAAVTAPTLSSNQGTPTSPVKKFPISTTKISPKEEERKDESPASWRLGLRKTGSYGALAEISASKEAQKEKDTAGVMRSASSPRLSSSLDNKEKEKDNKGTRLAYVTPTIPRRLASTSDIEEKENRESSSLRTSSSYTRRKWEDDLKKNSSINEGSTYHRSCSFGRRQDDLISCSVPSTTSTPTVTSAAGLQRSLPSSTSTAAKTPPGSSSAGTQSSTSNRLWAEDSTEKEKDSAPTAVTIPVAPTVVNAAAPSTTTLTTTTAGTVSEVRERRRSYLTPVRDEESESQRKARSRQARQSRRSTQGVTLTDLQEAEKTIGRSRSTRTREQENEEKEKEEKEKQDKEKQEEKKESEASREDEYKQKYSRTYDETYTRYRPVSTSSSSAPSSSSLSTLGSTLYASSQLNRPNSLVGITSAYSRGLAKENEREGEKKEEEKEGEDKSQPKSIRERRRPREKRRSTGVSFWTQDSDENEQERQSDTEDGSSKRETQTDSVSRYDSSSTSSSDRYDSLLGRSASYSYLEDRKPYSSRLEKDDSTDFKKLYEQILAENEKLKAQLHDTNMELTDLKLQLEKATQRQERFADRSQLEMEKRERRALERRISEMEEELKMLPDLKADNQRLKDENGALIRVISKLSK
For B3, the binding result in experiment [3] and in experiment [2] was “binds” each time.
